Values joined by “and” are separate entries in the source; they are usually repeats but may differ in a detail not shown here. Equal values may be shown once.
Columns and labels:
[1] = system: Pioneer inbred PHH5E seedlings / leaf segments; assay: Auxin (2,4-D) seedling pre-treatment, leaf transformation (Table 33); type: in vivo, maize; conditions: for No. T0 Plants / T-DNA Delivery: 24 hours, 60 seedlings; for Txn % (Transformation Frequency): (No. T0 plants/No. Seedlings) × 100; for No. SC Clean: single-copy T-DNA integration with no extraneous Agrobacterium sequences
[2] = system: Pioneer inbred PHH5E seedlings / leaf segments; assay: Seedling pre-treatment with ancymidol, Agrobacterium-mediated random leaf transformation (Table 21); type: in vivo, maize; parameters: key to T-DNA Delivery: 0 = None; 4 = almost all embryos expressing
[3] = seedlings on 10 mg/l 2,4-D for 24 hours
[4] = 2 mg/l ancymidol in germination medium, 14 days, single experiments (Exp. 1-3), 28-33 seedlings, PHP97334
[5] = 2 mg/l ancymidol, Totals of Exp. 1-3, 93 seedlings
[6] = 4 mg/l ancymidol in germination medium, 14 days, single experiments (Exp. 1-3), 32-33 seedlings, PHP97334
[7] = 4 mg/l ancymidol, Totals of Exp. 1-3, 97 seedlings

## O=C(O)COc1ccc(Cl)cc1Cl [2,4-D, 2,4-dichlorophenoxyacetic acid]
[1]; 2,4-D 3 mg/l
  SC % (Single-copy Frequency): 30%
  No. T0 Plants: 45
  T-DNA Delivery: 3 (75%)
  Txn % (Transformation Frequency): 75%
  No. SC Clean: 18
[1]; 2,4-D 10 mg/l
  SC % (Single-copy Frequency): 67%
  No. T0 Plants: 72
  T-DNA Delivery: 4 (90-100% of the leaf segments/pieces within a treatment showed ZS-GREEN expression)
  Txn % (Transformation Frequency): 120%
  No. SC Clean: 40
[1]; 2,4-D 30 mg/l
  SC % (Single-copy Frequency): 32%
  No. T0 Plants: 28
  T-DNA Delivery: 4 (90-100% of the leaf segments/pieces within a treatment showed ZS-GREEN expression)
  Txn % (Transformation Frequency): 47%
  No. SC Clean: 19
[1]; [3]
  frequency of single-copy T-DNA integrations compared to the control treatment: increased
  transformation frequency (Txn %) compared to the control treatment: increased

## COc1ccc(C(O)(c2cncnc2)C2CC2)cc1 (stereo not drawn) [Ancymidol, ancymidol]
[2]; [4]
  No. T0 Plants: 66 and 118 and 97
  SC %: 41% and 43% and 69%
  T-DNA Delivery: 4
  Txn % (Transformation Frequency): 236% and 358% and 303%
[2]; [5]
  # SC T0s (single copy of the integrated T-DNA): 145
  No. T0 Plants: 281
  SC %: 52%
  T-DNA Delivery: 4
  Txn % (Transformation Frequency): 302%
[2]; 2 mg/l and 4 mg/l ancymidol
  overall rates of early somatic embryo formation relative to the control treatment: higher
[2]; [6]
  # SC T0s (single copy of the integrated T-DNA): 51 and 45
  No. T0 Plants: 75 and 83 and 81
  SC %: 68% and 54% and 63%
  T-DNA Delivery: 4
  Txn % (Transformation Frequency): 234% and 252% and 253%
[2]; [7]
  # SC T0s (single copy of the integrated T-DNA): 147
  No. T0 Plants: 239
  SC %: 62%
  T-DNA Delivery: 4
  Txn % (Transformation Frequency): 246%
[2]; seedlings grown on 2 mg/l ancymidol
  average T0 Txn % higher than the control treatment: 3 fold
[2]; seedlings grown on 4 mg/l ancymidol
  average T0 Txn % higher than the control treatment: 2.5 fold

From US20250311689A1, “SEEDLING GERMINATION AND GROWTH CONDITIONS” (PIONEER HI-BRED INTERNATIONAL, INC., priority 2022, published 2025)
